# The supplement of paper PMC8728848
# The other results are listed elsewhere or left out.
# Key:
# Assay in all cases: glycan array binding signal (z-score within array); higher = stronger binding
# Details in all cases: glycan notation: IUPAC condensed, linker removed
# [1] = target: Neu5Ac(a2-6)GlcNAc(b1-4)GlcNAc(b1-4)GlcNAc
# Procedure, shortened: (§1)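 Columns mapping to the same glycan were averaged after glycan names were converted to IUPAC-condensed notation. The data come from 3228 arrays in the Consortium for Functional Glycomics database, limited to those with an available protein sequence. Binding is reported as a within-array Z-score averaged across arrays of one protein sequence and across linkers.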
# Neu5Ac(a2-8)Neu5Ac = target: Neu5Ac(a2-8)Neu5Ac
# Procedure, shortened: as §1
# [2] = target: Neu5Ac(a2-8)Neu5Ac(a2-3)Gal(b1-3)GalNAc(b1-4)[Neu5Ac(a2-3)]Gal(b1-4)Glc
# Procedure, shortened: as §1
# [3] = target: Neu5Ac(a2-8)Neu5Ac(a2-3)Gal(b1-3)GalNAc(b1-4)[Neu5Ac(a2-8)Neu5Ac(a2-3)]Gal(b1-4)Glc
# Procedure, shortened: as §1
# [4] = target: Neu5Ac(a2-8)Neu5Ac(a2-3)Gal(b1-4)Glc
# Procedure, shortened: as §1
# [5] = target: Neu5Ac(a2-8)Neu5Ac(a2-3)Gal(b1-4)GlcNAc
# Procedure, shortened: as §1
# [6] = target: Neu5Ac(a2-8)Neu5Ac(a2-3)[Gal(b1-3)GalNAc(b1-4)]Gal(b1-4)Glc
# Procedure, shortened: as §1
# [7] = target: Neu5Ac(a2-8)Neu5Ac(a2-3)[GalNAc(b1-4)]Gal(b1-4)Glc
# Procedure, shortened: as §1
# [8] = target: Neu5Ac(a2-8)Neu5Ac(a2-8)Neu5Ac
# Procedure, shortened: as §1
# [9] = target: Neu5Ac(a2-8)Neu5Ac(a2-8)Neu5Ac(a2-3)Gal(b1-4)Glc
# Procedure, shortened: as §1
# [10] = target: Neu5Ac(a2-8)Neu5Ac(a2-8)Neu5Ac(a2-3)[Gal(b1-3)GalNAc(b1-4)]Gal(b1-4)Glc
# Procedure, shortened: as §1
# [11] = target: Neu5Ac(a2-8)Neu5Ac(a2-8)Neu5Ac(a2-3)[GalNAc(b1-4)]Gal(b1-4)Glc
# Procedure, shortened: as §1
# [12] = target: Neu5Ac(a2-8)Neu5Ac(a2-8)Neu5Ac(a2-8)Neu5Ac(a2-3)[GalNAc(b1-4)]Gal(b1-4)Glc
# Procedure, shortened: as §1
# [13] = target: Neu5Ac(a2-8)Neu5Gc(a2-3)Gal(b1-4)GlcNAc
# Procedure, shortened: as §1
# [14] = target: Neu5Ac(b2-6)Gal(b1-4)GlcNAc
# Procedure, shortened: as §1
# Neu5Ac(b2-6)GalNAc = target: Neu5Ac(b2-6)GalNAc
# Procedure, shortened: as §1
# [15] = target: Neu5Ac9Ac(a2-3)Gal(b1-3)GlcNAc
# Procedure, shortened: as §1
# [16] = target: Neu5Ac9Ac(a2-3)Gal(b1-4)GlcNAc
# Procedure, shortened: as §1
# [17] = target: Neu5Ac9Ac(a2-6)Gal(b1-4)GlcNAc
# Procedure, shortened: as §1
# [18] = target: Neu5Gc(a2-3)Gal(b1-3)GlcNAc
# Procedure, shortened: as §1
# [19] = target: Neu5Gc(a2-3)Gal(b1-3)[Fuc(a1-4)]GlcNAc
# Procedure, shortened: as §1
# Neu5Gc(a2-3)Gal(b1-4)Glc = target: Neu5Gc(a2-3)Gal(b1-4)Glc
# Procedure, shortened: as §1
# [20] = target: Neu5Gc(a2-3)Gal(b1-4)GlcNAc
# Procedure, shortened: as §1
# [21] = target: Neu5Gc(a2-3)Gal(b1-4)GlcNAc(b1-3)Gal(b1-4)GlcNAc(b1-2)Man(a1-3)[Neu5Gc(a2-3)Gal(b1-4)GlcNAc(b1-3)Gal(b1-4)GlcNAc(b1-2)Man(a1-6)]Man(b1-4)GlcNAc(b1-4)GlcNAc
# Procedure, shortened: as §1
# [22] = target: Neu5Gc(a2-3)Gal(b1-4)[Fuc(a1-3)]GlcNAc
# Procedure, shortened: as §1
# [23] = target: Neu5Gc(a2-6)Gal(b1-4)GlcNAc
# Procedure, shortened: as §1
# Neu5Gc(a2-6)GalNAc = target: Neu5Gc(a2-6)GalNAc
# Procedure, shortened: as §1
# [24] = target: Neu5Gc(a2-8)Neu5Ac(a2-3)Gal(b1-4)GlcNAc
# Procedure, shortened: as §1
# [25] = target: Neu5Gc(a2-8)Neu5Gc(a2-3)Gal(b1-4)GlcNAc
# Procedure, shortened: as §1
# [26] = target: Neu5Gc(a2-8)Neu5Gc(a2-3)Gal(b1-4)GlcNAc(b1-3)Gal(b1-4)GlcNAc
# Procedure, shortened: as §1
# [27] = target: Neu5Gc(a2-8)Neu5Gc(a2-6)Gal(b1-4)GlcNAc
# Procedure, shortened: as §1
# [28] = target: Neu5Gc(b2-6)Gal(b1-4)GlcNAc
# Procedure, shortened: as §1
binder,measurement,setting,value
B1257 (Bifidobacterium sp) (protein) MKKSIRLVAAIAALAMTAGISACGSSTNGNQAKSDVTAQDVETALTDTSKNVELTVWAYSAKQMEPTVKAFEKKYPHIKINFVNTGAAGDHFTKFQNVVQAQKDIPDVVQMGANKFQQFAVSGALLNFANDSIEKAWSKLYTKTAWAQVHYAGGLYGAPQDATPLANYVRKDILDEHNLQVPESWEDIYNEGIKLHKEDSNKYMGILGSDISFFTNLYRSVGARLWKVNSVDDVELTMNSGKAKEFTEFLQKCLKDGVLEGGTVFTDEFNRSINDGRYATFINENWMGNTYKEQNPSLKGKMVVAAPPSWKGQPYQSSSVGSMMSVSAACPKEKQAAALAFINWLDSDKDAIQSWQDTNNGNFFMAASVYQDDENQRNKKETDGYYANDDVNAVYFDSMDKVNTDWEYLPFMSQVEVVFNDVIVPQMNENGDLVGAMAKAQQELKTYAKDNGFKVTTDAD,glycan array binding signal (z-score),[1],-0.081
same,glycan array binding signal (z-score),Neu5Ac(a2-8)Neu5Ac,-0.116
same,glycan array binding signal (z-score),[2],-0.085
same,glycan array binding signal (z-score),[3],-0.004
same,glycan array binding signal (z-score),[4],-0.165
same,glycan array binding signal (z-score),[5],-0.063
same,glycan array binding signal (z-score),[6],-0.153
same,glycan array binding signal (z-score),[7],-0.037
same,glycan array binding signal (z-score),[8],-0.056
same,glycan array binding signal (z-score),[9],-0.159
same,glycan array binding signal (z-score),[10],-0.128
same,glycan array binding signal (z-score),[11],-0.069
same,glycan array binding signal (z-score),[12],-0.223
same,glycan array binding signal (z-score),[13],-0.255
same,glycan array binding signal (z-score),[14],-0.094
same,glycan array binding signal (z-score),Neu5Ac(b2-6)GalNAc,-0.111
same,glycan array binding signal (z-score),[15],-0.049
same,glycan array binding signal (z-score),[16],-0.127
same,glycan array binding signal (z-score),[17],-0.125
same,glycan array binding signal (z-score),[18],-0.106
same,glycan array binding signal (z-score),[19],-0.065
same,glycan array binding signal (z-score),Neu5Gc(a2-3)Gal(b1-4)Glc,0.085
same,glycan array binding signal (z-score),[20],0.063
same,glycan array binding signal (z-score),[21],0.051
same,glycan array binding signal (z-score),[22],-0.012
same,glycan array binding signal (z-score),[23],-0.004
same,glycan array binding signal (z-score),Neu5Gc(a2-6)GalNAc,-0.027
same,glycan array binding signal (z-score),[24],0.07
same,glycan array binding signal (z-score),[25],-0.09
same,glycan array binding signal (z-score),[26],-0.138
same,glycan array binding signal (z-score),[27],-0.091
same,glycan array binding signal (z-score),[28],-0.058
